Experimental data from the supplement of paper PMC11417369.
The other results are listed elsewhere or left out.

tested on: PF3D7_0420300 AP2 domain 1 (GST-tagged); assay: gcPBM binding intensity (ln(normalized median fluorescence intensity)); higher = stronger DNA binding
Method in brief: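 DNA-binding domains from P. falciparum, fused to GST and produced in E. coli, were put on an Agilent 4 × 180k double-stranded probe array for 1 h in 1× PBS holding 1% milk, 0.2 mg/ml BSA, 0.5% salmon testes DNA and 0.03% Triton X-100. Probes were primer-extended, 36 bp long and drawn from intergenic genomic regions, with negative controls included. After Alexa488 anti-GST antibody detection and a 488 nm scan, binding intensity was set as the highest Masliner-normalised natural-log median intensity across replicate spots of either probe orientation.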

Sequence	gcPBM binding intensity (ln)
ATGAACTAAACTAATCGTACAATAAGTTTTATTATA [XGTACX_site4891]	9.15
AAAAAAATATATAAATGTACATATTGTTTAATTAAT [XGTACX_site3794]	9.17
TCACACACTCTCAAAAGTACAAGAAGATTATGAAGA [XGTACX_site4748]	9.38
ATCTATCATATTTATGCACACAAAAATAATTAATTC [CACACA_site8837]	9.34
GAAATATAATTTATTACACACATTTTAAAAAAATTC [CACACA_site1087]	9.26
TTCAACGTTTTGGAATGTACAGAAAGGTATCCATCA [XGTACX_site179]	8.99
AAAAAAAAAAAAAAAAAAAAAAAAAAAAAATATGTG [GTGCAC_negctrl_site657]	9.46
TTTATAACATTTAAGAGTACAAAAAAATAAATAAAT [XGTACX_site1264]	9.37
TAAAAGATAAAATATGCATGTGTAATTTTTTTTTTT [TGCATGCA_site955]	9.17
ATAAAAATTTAAAAAGAACACACGAAAGAAGGACTT [CACACA_site3929]	9.83
AATACCTACCAAACATGTACATACGCTTCTCAAATA [XGTACX_site5535]	9.41
TATATAAACACGTACACACACATATCTGTATTTATA [CACACA_site5858]	9.95
ATATTTTTAGGTGATTATTATTCGGAGAAGCGAATT [CACACA_negctrl_site1097]	9.01
GTGAGCTCAGACTACACACACAAAGAAAAAAATAAA [CACACA_site1553]	9.73
AACAAATACAGACACACACACACACCCAAAAAAAAA [CACACA_site515]	9.99
ATACAACAAAAATAAGCACACACAAATATACATACA [CACACA_site9201]	10.1
TTTTGAAGCTTTAAAACATATATATATATATATATA [CACACA_negctrl_site184]	9.25
AGCAAAACAAAAAAATTAAAATTAACATATAATCAT [GTGCAC_negctrl_site393]	9.26
AATAAGAGGATACATTGTACATAAAAAAAAAAAATA [XGTACX_site1815]	9.33
ATGTTCTTATTATTGGTGCAAGAATACACAAGAAAA	9.15
TATTGTTCTTATTTAGTGCATATATAATATAATATA [GTGCAC_site9827]	9.22
AACACATAATAAAATTGTACCCAACATTTCTTTTGA [XGTACX_site8061]	9.26

Sequence	gcPBM binding intensity (ln)
TATGTGAATAAATAAGCACACATAAACACATATATA [CACACA_site9359]	9.64
TATAATAATAATTATACATGCATGAATATTTATATG [TGCATGCA_site811]	9.1
TCCTATATATAAATATTAATATATATGTATTGGTAT [GTGCAC_negctrl_site23]	9.28
AAAAAAAAAAAAAACACACACACAAATACAAATGGT [CACACA_site1721]	10.2
TTTCTTATTTTGGATTGTACGTATATTTTTCATTTT [XGTACX_site224]	9.72
TTACACATGAGAAAATGTACATATAATAAAATATGT [XGTACX_site904]	9.29
TTATATTTCAATCATATTGTCACAAGTCATATTTAT [GTGCAC_negctrl_site366]	9.13
AACAAAAAAAAAAAAAAAAAAAAAAAAAAAAAAATG [CACACA_negctrl_site1127]	8.9
ATGGACAAGTTAAACGCACACAAATATATACACCCA [CACACA_site8478]	9.71
AATAAAAAAAATAGCATACACACATATATACATATA [CACACA_site659]	9.72
TATATATATATGTGCGTGCACGTTACCTTGCTGTTT	9.36
TTTCCAAATACAACTACACACAAACAAAAGTTATAT [CACACA_site6544]	9.8
AAATTTAACAACTTCAAACACACAATATATATATAT [CACACA_site2092]	9.53
ATTAAATGTTATATTTGTACATATTATATATATATA [XGTACX_site5095]	9.35
TCCATATTTGTTCACACACACACATATTTATATATA [CACACA_site3570]	10.2
TTTGTTATTTTTTATTGTACTTTTTTTCTTTCATAA [XGTACX_site4302]	9.52
TTCATTTTTTATTATAGTACACATAATATTTGCAGA [XGTACX_site4032]	9.14
TTTTTTAAATGTATTAAAATTATATATATATATATA [GTGCAC_negctrl_site570]	8.93
ATACATAAATTTAGAAGTACATAACAAATTTTTAAA [XGTACX_site7448]	9.14
AATCAAAACAACAATAGTACATAAAAAAACAAAACA [XGTACX_site4181]	9.91
TGCAGTCTGGAGAAACGTACATAGTATCTGGTAGCT [XGTACX_site4937]	9.27
ATACATAAATATATATGTACATATATATATATATAT [XGTACX_site1055]	9.17

Sequence	gcPBM binding intensity (ln)
AAAATATATTTAAATTGTACACGTTACCATAACAAT [XGTACX_site2598]	9.25
CTTTTTATTTAGAACACACACAAAAAAAAAAAAAAA [CACACA_site1761]	8.96
ATGAATACAAAATTATACAAAATTATCAAAAGTATG [CACACA_negctrl_site1453]	9.31
AGGTTCTTTTTAAATGGTACACATAATTTGAAGATA [XGTACX_site400]	9.13
GTGTATAGAATGGTTTCTTTTAAGGTTTTTATTTTT [CACACA_negctrl_site564]	9.6
TCTTAAAAGGGGAATGGAATGGAGAAAATGAAATAA [GTGCAC_negctrl_site30]	9.03
ATACCCACTTAAAATACACACACACCGAAAAAAAAA [CACACA_site8867]	9.98
ATATATTAATAATTTTGTACGCATTTCCTTTTTATT [XGTACX_site1638]	9.55
AAAAAAAAAAAAAAATGTACAAATAAAGAAATATGA [XGTACX_site4371]	9.38
GAAAATATTTCCGTATGTACTTATTTTAGTCTACTA [XGTACX_site471]	9.33
AATATTTTCTTGTACGCATGCACATCCAAATTATAT [TGCATGCA_site873]	9.37
TGACCTGTTCAGGTAACACACATATAAACACATACA [CACACA_site4186]	9.6
TTTCTTTTTTTTTGAAGTACATAAAAATATAAAAAA [XGTACX_site311]	8.66
ATATATATATGTATGTATATATATATATATATGTTT [CACACA_negctrl_site248]	9.35
AATATTATAAAATATTGTACTTAAAAAATTATTAAA [XGTACX_site2469]	8.73
TAAATTTTTTCTTTTTGTACATATTTTAAAAATGTT [XGTACX_site7526]	9.09
AAAAAGAAAAAGAGCACACAAAAATATTTAACCTTT [CACACA_site2747]	9.7
ATGGCATAAATATATGCACACACAAAAAAAAAAAAA [CACACA_site7902]	9.43
TATATATATATAATATGTACATATATACATGCCTTG [XGTACX_site2791]	9.15
TACACTAATGACAGTTGTACTTTTATTCGATAGAAT [XGTACX_site738]	9.05
TCGAAAATGACGAATGGTACAGTATGTATAAAAATA [XGTACX_site1258]	9.27
ACTTTTTTTTTGTGTGTGCACTCGATTATATACATA [GTGCAC_site9846]	10

Sequence	gcPBM binding intensity (ln)
TATATATACATACGTACACACAAATATTAAAATATA [CACACA_site1951]	9.5
TCAAAATTGCTTTGTTGTACTAATAAAATTTATTAC [XGTACX_site1121]	9.13
TATCTGTAAACATATTCACACACATAAATTCGCATA [CACACA_site8557]	9.75
GATAAATATTTAATATGTACATATATTATATATATA [XGTACX_site117]	9.08
GTTATATATGATGGAAGCACTTGGAAGAGGGAAATA [CACACA_negctrl_site1831]	9.44
AAAAATAAAAAAATAAAAAATAAAAAAATAAAAAAT [CACACA_negctrl_site1425]	9.57
TATATACACACCGTGTGTACATATACATTAACTGAA [XGTACX_site7120]	9.83
ATATATTATATATGCGCACACACGAATTTTTTTTTT [CACACA_site2393]	9.64
ATTAAAGTTATAAATTCACACATGTAAATGTATTTA [CACACA_site5279]	9.12
TTTTATTTATCATACACACACAGAAAAAAAAAAAAA [CACACA_site158]	9.57
GAATGTTTATTATATGCATGTTATATATATGAATAT [TGCATGCA_site4]	9.28
CCTTTCCTTTTATAAGTGCATATAACAAATGTATAC [GTGCAC_site9872]	9.18
AATAATGAAAAATCAAATAACCTAAATTACAACTGT [XGTACX_negctrl_site65]	9.57
AAATACTGTACAAAGGTGCATAAAAAGTGGGGCATA	9.74
TCAAAAGAAATAAAAACATGCATAAAAGTAAAAATA [TGCATGCA_site832]	9.33
ACGTATATTTTTACATGTACATATGTAAAAAATTTT [XGTACX_site4587]	9.08
TGTTTTTCATAGTGCACACATAACCAAAAATAGTAT [CACACA_site3150]	9.41
AAATAATATATATACACACACACATATATATATACA [CACACA_site554]	10.1
TTATGATAATTTTGCACACACTTAGGAAAAATTATG [CACACA_site4949]	9.4
CTTATATATACGTGCACACATATATATAAGATATAT [CACACA_site1752]	9.31
AAAAATATAAATGACACACACTTAAAAACAAAGAAA [CACACA_site4540]	10
ATTTAAAAAAAAAAAAATAAATAACTTGAAAAACAA [GTGCAC_negctrl_site318]	9.09
